Test systems include WM115; WM1716; WM1745; WM3526; WM3619; WM451Lu.
Experiment in all cases: cell count relative to DMSO control; melanoma cells; higher = more viable cells
Holding throughout (settings): library dose: low library concentration; 72 h

SMILES strings stand for the structures. The list shows a part of the results. Many values rest on one well or one pass, so single values are uncertain.
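Note: cell number obtained by counting DAPI-stained nuclei in high-throughput microscope images with image analysis software, screen run in 1,536-well plates.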

Turning to `N#CC[C@H](C1CCCC1)n1cc(-c2ncnc3[nH]ccc23)cn1` [ruxolitinib] + OCCn1cc(-c2cnc3nnn(Cc4ccc5ncccc5c4)c3n2)cn1 [PF04217903] (first compound 1 µM, partner dose 1 µM), the cell count turned out to be 89.1% in the assay on WM115; 112% in the assay on WM1716; 87.8% with WM1745; 88.1% in the assay on WM3526; 109% with WM3619; 102% in the assay on WM451Lu.

As to `CC[C@]1(O)C[C@H]2CN(CCc3c([nH]c4ccccc34)[C@@](C(=O)OC)(c3cc4c(cc3OC)N(C=O)[C@H]3[C@@](O)(C(=O)OC)[C@H](OC(C)=O)[C@]5(CC)C=CCN6CC[C@]43[C@@H]65)C2)C1` [vincristine] + CC(=O)c1c(C)c2cnc(Nc3ccc(N4CCNCC4)cn3)nc2n(C2CCCC2)c1=O [palbociclib] (first compound 0.0001 µM, partner dose 0.04 µM), the cell count in the assay on WM115 was 50.1%; in the assay on WM1716 it was 33.2%; with WM1745, 63.2%; in the assay on WM3526, 54.7%; with WM3619, 52.3%; with WM451Lu it was 54.3%.

Consider `CC[C@]1(O)C[C@H]2CN(CCc3c([nH]c4ccccc34)[C@@](C(=O)OC)(c3cc4c(cc3OC)N(C=O)[C@H]3[C@@](O)(C(=O)OC)[C@H](OC(C)=O)[C@]5(CC)C=CCN6CC[C@]43[C@@H]65)C2)C1` [vincristine] + C=C(c1ccc(C(=O)O)cc1)c1cc2c(cc1C)C(C)(C)CCC2(C)C [Bexarotene] (first compound 0.0001 µM, partner dose 2 µM), for which the cell count with WM115 amounted to 55.9%; with WM1716, 45.6%; with WM1745, 85%; in the assay with WM3526, 69.6%; with WM3619, 63.4%; in the assay on WM451Lu it was 62.2%.

On to `Cc1cc(Nc2cc(N3CCN(C)CC3)nc(Sc3ccc(NC(=O)C4CC4)cc3)n2)n[nH]1` [Tozasertib] + NCC(=O)Nc1ccc(-n2nc(C(F)(F)F)cc2-c2ccc3c(ccc4ccccc43)c2)cc1 [OSU03012] (first compound 0.006 µM, partner dose 1 µM), for which the cell count in the assay on WM115 was 99.1%; in the assay on WM1716 it was 95.7%; with WM1745, 70.5%; with WM3526 it was 60.9%; in the assay with WM3619 it was 61.1%; in the assay on WM451Lu, 92.3%.

Source of the values: the supplement of paper PMC4604168 (melanoma cell lines).
